# ChEMBL document CHEMBL4888484, “Replenishing the malaria drug discovery pipeline: Screening and hit evaluation of the MMV Hit Generation Library 1 (HGL1) against asexual blood stage Plasmodium falciparum ,using a nano luciferase reporter read-out” (2022)
# Where “and” joins values, the source holds several entries; their conditions need not be identical. Equal entries are not always repeated. Hit rate of the full screen: of about 150,000 compounds, about 540 (0.36%) showed an effect of 50% or more. This is one part of the list.
# Test system: Plasmodium falciparum
# Test: Primary screen in NF54 nanoGlo assay, in single point, at 2uM, 72h; a lower Z score goes with more inhibition
# Type: functional, Erythrocyte
# Conditions: timepoint 72 hour
Structure (SMILES),% Inhibition [%],Z score,% Inhibition (2 µM),Z score (2 µM)
CCc1ccc([C@H]2C[C@@H](c3ccc(F)cc3)Nc3nc(N)nn32)cc1,2,-0.2,,
CC(C)N(Cc1ccccn1)C(=O)CC(F)(F)F,-10,1.29,,
COc1cccc(C(=O)N(Cc2c(-c3ccccc3)noc2N(C)C(C)C)C(C)C)c1,-4,0.63,,
COC[C@](C)(CCO)NC(=O)Nc1cc(F)cc(Br)c1,-13,1.11,,
CCc1nnc(C)cc1C(=O)NCC(=O)C(C)(C)C,-8,1.51,,
CC1CC(C)CN(C(=O)C2CCN(S(=O)(=O)c3ccc4c(c3)C(C)(C)C(=O)N4C)CC2)C1 (stereo not given),-3,0.57,,
O=C(C1COc2ccccc2O1)N1CCC(c2ccccc2)S(=O)(=O)CC1 (stereo not given),-3,0.43,,
CCOC(=O)N1CCN(c2nc3cc4c(cc3cc2CN[C@H]2CCOC(C)(C)C2)CCC4)CC1,17,-2.18,,
CCCN(Cc1ccsc1)S(C)(=O)=O,-9,1.25,,
O=C(O)c1cncnc1N1C[C@@H]2[C@H](C1)[C@H]2C(=O)O,-1,0.24,,
CC1n2c(nc3ccccc32)S(=O)(=O)C(c2ccccc2)C1(C)O (stereo not given),4,-0.51,,
Cc1cc(C(=O)Nc2ccnn2[C@@H](C)C(C)C)cc(=O)[nH]1,-17,1.98,,
O=S1(=O)CC2CC1CN2S(=O)(=O)N1CCCC1 (stereo not given),-15,1.78,,
O=C(COc1ccc2c(c1)C(=O)CC2)Nc1ccon1,22,-2.84,,
O=C(CCO)N[C@H](c1cnc2ccccc2c1)C1CC(O)C1 (stereo not given in full),-7,1.43,,
CC(=O)c1sc(NC(=O)CCc2c(C)nc3c(C#N)cnn3c2C)nc1-c1ccccc1,-27,3.21,,
CCCn1nc(C2CC2)nc1-c1cc2ccccc2[nH]1,-8,1.74,,
Cc1cc(NC(=O)N[C@H](c2cnn(C)c2)C(C)C)cc(C)n1,-8,1.17,,
CCOC(=O)CCC(=O)N1CC[C@H](Oc2cc(C)nc(C)n2)C1,-9,1.4,,
O=S1(=O)CCC[C@H](NS(=O)(=O)CC23CCC(CC2)C3)C1,9,-1.52,,
CC(C)(C)NC(=O)c1ccc(Cl)cc1F,-9,1.31,,
CC(=O)NCc1cc(-c2cccs2)nn1C,-10,1.31,,

Structure (SMILES),% Inhibition [%],Z score,% Inhibition (2 µM),Z score (2 µM)
Cc1cc(C(=O)COc2ccc(Br)cc2F)c(C)n1[C@H]1CCS(=O)(=O)C1,1,-0.16,,
COc1cccc(-c2nc3c(s2)CN(C(=O)c2ccccc2)CC3)c1,3,-0.35,,
CN(C)Cc1ccccc1CN(C)Cc1ccc(N(C)C)nc1,-13,1.25,,
Cc1c(C2CCCCC2)noc1NC(=O)Cc1ccco1,-6,1.15,,
CC[C@H]1CN(C(=O)c2scnc2C)CCO1,-5,0.48,,
CCCNC(=O)CN1CC(C)C1c1ccccc1 (stereo not given),-21,2.87,,
CC(=O)[C@H]1CCCCN1C(=O)c1ccc(C(N)=O)cc1,-4,0.54,,
CC(NC(=O)N1CCCC1CO)c1ccc(NC(=O)NC2CC2)cc1 (stereo not given),4,-0.35,,
c1ccc2nc(-c3nc([C@H]4CCOC4)no3)cnc2c1,-16,1.66,,
C[C@@H]1CN(C(=O)Nc2nc(C3CCC3)cs2)C[C@@]1(C)CN,-5,0.97,,
Cc1nc(-c2ccc(C(=O)N[C@@H](C)Cn3cccn3)cc2)n(C)n1,2,-0.3,,
CC(C)c1ccsc1C(=O)NCCc1ccc(Cl)s1,-3,0.26,,
O=C(c1cccc2cc[nH]c12)N1CCC(Cc2ncc[nH]2)CC1,-1,0.2,,
CC(C)Cc1nc(CN2CCc3[nH]nc(-c4ccc(Cl)cc4)c3C2)no1,-16,2.09,,
Cc1nc(CN2CC[C@H](NC(=O)c3n[nH]c4c3CCCC4)[C@@H](O)C2)cs1,6,-1.04,,
CN(C)CCc1nnc(NC(=O)CCc2ccnn2C)s1,-9,1.3,,
Cc1nnc([C@H](C)N2CCN(C3CC3)CC2)s1,-3,0.35,,
Cc1ccc(C(=O)NC2CCCCCC2)cc1-n1cnc2cccnc21,-7,1.11,,
Cc1nccn1C[C@H]1CCCN(CCOc2ccccc2)C1,0,0.03,,
CC(C)=CCN1CC2(CCN(C(=O)Nc3ccccc3C)CC2)CC1=O,-12,2.38,,
Cc1nc(N[C@@H](C)Cc2cccnc2)cc(C(C)C)n1,20,-2.53,,
COc1cccc2c(N3CCN(Cc4ccccc4)CC3)nc(C(Cl)(Cl)Cl)nc12,-4,0.53,,

Structure (SMILES),% Inhibition [%],Z score,% Inhibition (2 µM),Z score (2 µM)
CCn1nnnc1NC(=O)NCC[C@@H]1OCCc2ccccc21,-2,0.32,,
O=C(c1cn[nH]c1)N1CCCC2(CCOCC2)C1,-8,1.01,,
O=C([C@H]1C[C@@H]1c1ccncc1)N1CCn2cnc(C(F)(F)F)c2C1,2,-0.46,,
CCc1cccc(NC(=O)Cc2c(C)nc(C)[nH]c2=O)c1,-7,1.43,,
COC1CN(c2ccc(NC(=O)Nc3cccc(C)c3)cc2)C1,-4,0.54,,
CN(Cc1ccccc1)[C@H]1CCOC2(CCN(C(=O)CC3CCCC3)CC2)C1,-13,1.67,,
CCOc1nc(-c2cccc(F)c2)n(-c2ccc(NC(=O)Nc3ccc(F)cc3F)cc2)n1,-9,1.18,,
CC(C)(CNC(=O)[C@@H]1CS(=O)(=O)CC(=O)N1)C1=CCCCC1,-4,0.72,,
O=C(CN1N=C(c2ccccc2)c2cc(Cl)ccc2S1(=O)=O)NCCc1ccccc1,11,-1.01,,
CCN(CCCCO)S(=O)(=O)c1cccc(C(=O)N2CCC2)c1,-4,0.52,,
CCCCN(CC(=O)N1c2ccccc2-n2cccc2[C@H]1c1ccc(Cl)cc1)C(=O)Nc1cccc2ccccc12,-1,0.17,,
CC(C)c1ccc(-c2cccc3c2O[C@@H](CN)C3)nn1,-12,1.75,,
COC(=O)C[C@H]1CCCCN1CC(=O)NC(=O)NC1CCCCC1,-10,1.85,,
CC(NC(=O)CN1CC(C)(C)C1c1cccs1)c1ccc(F)cc1 (stereo not given),3,-0.41,,
O=C(CC1CCC1)N1CCN(Cc2cccs2)C[C@H](O)C1,-18,3.41,,
CC(=O)NCC1=CCCN(CCC(F)(F)C(F)(F)F)C1,-4,0.83,,
CCS(=O)(=O)N(C)C1CCN(C(=O)[C@@H]2CCCc3ccccc32)CC1,-3,0.47,,
COC(=O)[C@H](CO)NS(=O)(=O)Cc1ccccc1,-13,1.5,,
Cc1n[nH]c(C)c1CC(=O)N1CCC2(CC1)Cc1cn(nn1)CCCNC(=O)[C@H](Cc1ccccc1)NC2=O,12,-1.56,,
Cc1cc(C)c(NC(=O)C2(N(Cc3ccco3)C(=O)CN3C(=O)c4ccccc4C3=O)CCC3Cc4ccccc4CC3C2)c(C)c1 (stereo not given),-45,5.25,,
Cc1noc2nc(C3CC3)cc(C(=O)N[C@H]3CCOc4c(F)cccc43)c12,7,-1.14,,
CCc1nnc(CN2CCOC[C@@H]2CC2CCC2)n1C,-15,2.48,,

Structure (SMILES),% Inhibition [%],Z score,% Inhibition (2 µM),Z score (2 µM)
COc1ccc(OC)c2c1cc(C(=O)Nc1nnc(CC(C)C)s1)n2C,-14,1.77,,
COc1cccc(CS(=O)(=O)Cc2nc(C)c(C)s2)c1,-18,3.35,,
Cc1cc(CNC2CCC3CC2CN3C(=O)OC(C)(C)C)ccn1 (stereo not given),-1,0.21,,
O=C1c2ccccc2C(=O)N1CCN1CCC[C@H]1c1ccsc1,-6,0.99,,
Cc1csc(CNC(=O)NCc2nnc3n2CCOCC3)c1,-2,0.17,,
CC1OCCC1NC(Cc1ccccc1)C(=O)N1CCCCC1 (stereo not given),5,-0.79,,
COc1ncccc1CNC(=O)c1cc(C)nc(C(F)(F)F)n1,-15,2.06,,
Cc1occc1C(=O)N[C@@H]1CN(Cc2ccccn2)C[C@H]1CO,-8,1.16,,
O=c1ncc2c(cnn2[C@H]2CCS(=O)(=O)C2)n1Cc1ccc(C(F)(F)F)cc1,0,0.05,,
COc1ccc([C@@H]2CNCCN2C)cc1OC,-4,0.5,,
Cc1noc([C@@H]2CCCO[C@H]2C2CCN(CC3CCC3)CC2)n1,6,-0.84,,
COc1ccc(C2(C#N)CCC3(CC2)OCCO3)cc1OC,,,-3% and -11%,0.59 and 1.51
CCc1cnc(C)nc1N1CCC(Oc2ncccn2)CC1,3,-0.46,,
CC(=O)N1C[C@@H]2C[C@H](NC(=O)c3cc(C)ccc3C)CN2C(=O)[C@@H]1C,-23,2.06,,
Cn1nccc1CN(CCO)Cc1nccs1,-12,1.46,,
c1coc(CN(Cc2nnnn2C2CC2)C2CC2)c1,-8,0.74,,
COc1cc2c(cc1OC)CN(C(=O)c1cnn[nH]1)CC2,6,-0.82,,
CCc1nc(C#N)cc(N2C3CCC2CN(C(=O)OC(C)(C)C)C3)n1,-6,0.77,,
N#Cc1cccnc1NCCc1ccccn1,1,-0.15,,
